Measurements: paper PMC4336329 (PLoS ONE, 2015)
In all, about 310,000 compounds went through this assay and about 2,200 (0.71%) showed an effect of 50% or more. The effect is printed as a negative number. The list shows a part of the results.

The molecules below were run against human ether-à-go-go-related gene (hERG) potassium channel (human, UniProt Q12809) (assay: primary screen, population patch clamp on CHO cells stably expressing hERG).
Chain of human ether-à-go-go-related gene (hERG) potassium channel (Q12809 whole entry, looked up): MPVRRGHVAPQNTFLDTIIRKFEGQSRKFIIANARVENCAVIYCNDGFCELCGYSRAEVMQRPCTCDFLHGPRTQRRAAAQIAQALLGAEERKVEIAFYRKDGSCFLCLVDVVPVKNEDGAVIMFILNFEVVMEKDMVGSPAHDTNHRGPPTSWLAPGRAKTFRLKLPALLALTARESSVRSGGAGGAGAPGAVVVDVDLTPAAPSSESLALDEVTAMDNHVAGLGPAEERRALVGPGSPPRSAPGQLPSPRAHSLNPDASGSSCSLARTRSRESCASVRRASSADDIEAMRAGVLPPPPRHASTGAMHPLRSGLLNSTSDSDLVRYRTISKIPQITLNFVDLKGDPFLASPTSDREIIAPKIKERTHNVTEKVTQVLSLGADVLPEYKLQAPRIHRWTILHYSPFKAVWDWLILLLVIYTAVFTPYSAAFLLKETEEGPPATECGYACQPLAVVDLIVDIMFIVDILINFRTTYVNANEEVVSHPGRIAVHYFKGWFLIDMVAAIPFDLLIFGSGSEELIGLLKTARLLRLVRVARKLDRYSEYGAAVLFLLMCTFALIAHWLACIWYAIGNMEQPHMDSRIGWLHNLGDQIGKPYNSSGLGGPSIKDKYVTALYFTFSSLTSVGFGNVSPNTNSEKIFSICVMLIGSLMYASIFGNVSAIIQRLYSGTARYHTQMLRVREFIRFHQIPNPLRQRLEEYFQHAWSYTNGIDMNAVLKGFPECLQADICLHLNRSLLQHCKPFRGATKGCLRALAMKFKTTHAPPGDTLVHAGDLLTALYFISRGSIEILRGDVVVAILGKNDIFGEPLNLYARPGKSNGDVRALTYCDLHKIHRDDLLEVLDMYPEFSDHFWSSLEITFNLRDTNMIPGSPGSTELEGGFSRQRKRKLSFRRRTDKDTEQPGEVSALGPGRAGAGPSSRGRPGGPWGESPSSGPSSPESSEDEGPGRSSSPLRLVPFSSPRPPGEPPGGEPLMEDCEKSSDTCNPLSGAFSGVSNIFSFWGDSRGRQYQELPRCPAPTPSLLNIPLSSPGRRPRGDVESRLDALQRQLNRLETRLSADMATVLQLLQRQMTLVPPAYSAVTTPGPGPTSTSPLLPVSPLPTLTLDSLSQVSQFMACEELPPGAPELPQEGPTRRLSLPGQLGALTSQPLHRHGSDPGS

SMILES	hERG current change (%, negative = inhibition) at 1uM [%]
COc1ccc(/C(O)=C(\C#N)c2nc3ccccc3n2C)cc1OC	4.68
CCOc1ccc(NC(=O)CCS(=O)(=O)c2ccc3c(c2)CCCN3C(=O)CC)cc1	5.42
Cn1c2ccccc2c2cc(C(=O)N3CCN(CCO)CC3)sc21	12.5
Cc1cccc(OCCCN2CCOCC2)c1	13.5
COC(=O)c1ccc(C(=O)OCCCc2nc3ccc(N)cc3[nH]2)cc1	-1.34
Cc1cc(C)nc(Oc2ccc(Br)cc2Br)n1	22
Cc1nc2ccc(NC(=O)NCCO)cc2s1	9.82
O=C(CSC1=NCCS1)NC(NC(=O)CSC1=NCCS1)c1ccccc1	16.7
COc1ccc(OC)c(C(=O)NC(CC(N)=O)c2ccc(N3CCN(c4ccc(F)cc4)CC3)c([N+](=O)[O-])c2)c1 (stereo not shown)	15.5
O=C(CN1CCOCC1)Nc1ccccc1Sc1ccc(Cl)cc1	15.2
COc1ccc(CCN(C)C(=O)CCCN2C(=O)c3cccc4cccc(c34)C2=O)cc1OC	-1.27
CCOC(=O)N1CCC(c2cc(=O)n3[nH]cc(C(=O)OC)c3n2)CC1	13.7
CC1C(=O)N2CCCc3cc(NC(=O)COc4ccc(Cl)cc4)cc1c32 (stereo not shown)	1.91
COc1ccccc1CNc1ncccc1[N+](=O)[O-]	3.82
O=C(NC1CCCCC1)c1cc(-c2ccc(F)cc2)on1	16.8
O=C(Nc1nccs1)C1CCCN(S(=O)(=O)c2cccnc2)C1 (stereo not shown)	12.6
COc1ccc(N2CC(NC(=O)NCC(C)C)CC2=O)cc1 (stereo not shown)	10.2
Fc1ccc(CSc2nnc(-c3cnccn3)n2Cc2ccco2)cc1	-46.9
Cc1ccc(NC(=S)NNC(=S)Nc2cccc(C(F)(F)F)c2)cc1	15.4
CC[N+]1(CC(O)COC2CC(C)CC(C)(C)C2)CCOCC1.[I-] (stereo not shown)	10.6
Cn1c(=O)c2c(nc(CN3CCN(c4ccc(F)cc4)CC3)n2CCN2CCOCC2)n(C)c1=O	-9.35
CCOc1ccc(N/C(SCc2cccc([N+](=O)[O-])c2)=C(/C#N)C(N)=O)cc1	5.83
CCOC(=O)N1CCN(c2ccccc2OC)CC1	13
COc1cccc(C(=O)NCCN2CCN(c3ccc(Cl)cc3)CC2)c1	0.313
O=C(C1CC(=O)N(c2ccccc2)C1)N1CCN(C2=NS(=O)(=O)c3ccccc32)CC1 (stereo not shown)	15.7
